From PMC5836133
Some of the results follow. At the low end of the ranking the order means little.

Tested on: T1, GST-NbGlk1(82-244)
T1 sequence: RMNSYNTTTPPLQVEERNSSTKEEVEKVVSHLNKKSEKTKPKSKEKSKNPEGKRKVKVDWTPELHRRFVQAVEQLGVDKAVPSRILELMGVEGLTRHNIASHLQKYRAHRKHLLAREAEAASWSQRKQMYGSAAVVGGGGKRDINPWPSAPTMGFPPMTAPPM
Assay: protein-binding microarray;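 also: rank-based score ranging −0.5 to +0.5 with E above 0.45 taken as significant binding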
Settings: NbGlk1 is a Golden2-like transcription factor of Nicotiana benthamiana; high values mean tight binding; most listed sequences are background and not binding sites; double strand, one strand shown

| Sequence | binding signal [E-score] |
| --- | --- |
| AACGACCG | -0.134 |
| ATATGCGA | 0.229 |
| CACGCAGG | -0.215 |
| AATTTATA | 0.264 |
| AAGACCCG | -0.353 |
| AACCTTGC | -0.154 |
| ATGTATGC | 0.107 |
| AGCTCACT | -0.201 |
| AAGGCTCG | -0.248 |
| ACTGGCTC | -0.288 |
| AGTCTTGC | -0.0302 |
| AGTTTATA | 0.158 |
| ATCTTCGG | 0.284 |
| ATGACATA | -0.0949 |
| AGAAACCC | -0.18 |
| ATAACGAT | 0.216 |
| ACGCAAAA | 0.172 |
| ATTAGTCC | -0.131 |
| AAGCGAGC | -0.108 |
| CAACGCCG | -0.25 |
| AACTGTAC | -0.167 |
| AGGAGTCG | -0.166 |
| ACAATCAA | 0.223 |
| ATAACTTC | 0.0418 |
| AACGGCTT | -0.157 |

| Sequence | binding signal [E-score] |
| --- | --- |
| CAAGCCCC | -0.19 |
| ACTTCACC | -0.0899 |
| AATATAGC | 0.193 |
| AGTCCATG | -0.194 |
| AGGTGCGC | -0.279 |
| AGCCCTCG | -0.306 |
| AAAAGGTC | -0.119 |
| ACTTTGCA | -0.0392 |
| ATCCAATC | 0.254 |
| ACAGGCGG | -0.142 |
| AGCGAACT | -0.285 |
| ATCGACTC | 0.072 |
| AACTCGAG | -0.125 |
| AGGACGCC | -0.274 |
| AACCCGTC | -0.191 |
| AGGCGTGC | -0.222 |
| AATGCTCC | -0.241 |
| ACCTATCG | -0.0273 |
| AGGGGAAC | -0.142 |
| ACTGTCCC | -0.0963 |
| AACAACCT | -0.189 |
| AATTGATA | 0.13 |
| CACCCATG | -0.193 |
| CAAGGCAC | -0.245 |
| ACCTGCAA | -0.0581 |

| Sequence | binding signal [E-score] |
| --- | --- |
| AACCTTAC | -0.196 |
| ACCCGGGC | -0.195 |
| ACAACAAA | 0.0662 |
| ACTCGTTC | -0.102 |
| AATTGTGT | 0.123 |
| ACTTGTCG | -0.195 |
| AGATTACC | 0.459 |
| ATTCATCG | 0.0633 |
| ACCAAGCC | -0.183 |
| AGTGGTCG | -0.215 |
| CAACACAC | -0.139 |
| AAGGTAGA | 0.0394 |
| ATTCCAGG | 0.13 |
| AGCTAACA | -0.0913 |
| ATCGGAGC | 0.0219 |
| ATTTACGA | 0.191 |
| ACGTGGCC | -0.258 |
| CACCTTAA | -0.126 |
| AGATGGCT | -0.13 |
| CACATATA | 0.0872 |
| AACTTCAT | -0.0823 |
| ACATGAGT | 0.0378 |
| ACTCCAAC | -0.176 |
| ACTGAGGA | 0.00353 |
| ACTTGCTA | -0.107 |

| Sequence | binding signal [E-score] |
| --- | --- |
| ATCTGCTC | 0.147 |
| ACTTGTCC | -0.173 |
| AAAGTACT | -0.0835 |
| AGTTGCGA | 0.00658 |
| AACAGGTG | -0.202 |
| ACCGCGGA | -0.0687 |
| AGCTGGTC | -0.341 |
| ATCCTAGA | 0.263 |
| ACTATCTG | 0.13 |
| CACGTCCG | -0.157 |
| AGTGCGTC | -0.207 |
| AAGCTGGT | -0.248 |
| ATGATGTC | -0.0895 |
| AGTTCCCC | -0.181 |
| CACTTGTC | -0.175 |
| ATGGGCTC | -0.138 |
| AAGAAATC | 0.443 |
| AATTTTTA | 0.181 |
| ACTGATAG | -0.0397 |
| AAGCGCCG | -0.199 |
| AACTCATC | -0.179 |
| ATGCGGGA | -0.0269 |
| ACGCGGAA | 0.0172 |
| AGGCATAG | -0.185 |
| AGAATTAG | 0.0695 |

| Sequence | binding signal [E-score] |
| --- | --- |
| AGTATCCA | 0.265 |
| AAAAAGTT | 0.0636 |
| AAAGCCCG | -0.294 |
| ACACAGAA | 0.0891 |
| AACCGCAT | -0.141 |
| AGCAACTC | -0.0471 |
| ACAGTAGA | 0.0173 |
| CAACGCGC | -0.0169 |
| AACATCCA | 0.0573 |
| ACAGTACA | 0.00516 |
| ACCTCCGC | -0.262 |
| ATAGACGC | -0.133 |
| AAACAGGT | -0.0999 |
| AATTATAG | 0.124 |
| ACCTAGCC | -0.106 |
| ACACCCCG | -0.166 |
| AGCGCTTG | -0.131 |
| AGGTACTA | -0.116 |
| ATTGGATG | 0.0536 |
| AGGTAATC | 0.416 |
| ATGCGAAG | -0.0716 |
| AAGCAGTC | -0.212 |
| AATCCTAA | 0.395 |
| AGCGAAAA | 0.0195 |
| ACCTCAAA | -0.0253 |

| Sequence | binding signal [E-score] |
| --- | --- |
| AGTTGAGC | -0.138 |
| AGGCTTCC | -0.353 |
| ATTAAGGA | 0.0905 |
| ATTGGTCA | 0.0284 |
| AAGTATAA | 0.165 |
| ATGGGTGC | -0.0894 |
| ATGTGTAG | 0.045 |
| AAGGTACC | -0.115 |
| AACTCTCC | -0.0732 |
| AGTACTAG | -0.0845 |
| AAGGCCCG | -0.243 |
| AGGTTTTC | -0.102 |
| ATCTGATG | 0.241 |
| ACGGTTAA | -0.0147 |
| ATTTAGAG | 0.0647 |
| AAAGTAGC | -0.124 |
| ATTCAGCA | 0.107 |
| ATCATCGG | 0.138 |
| ACGGCTTC | -0.336 |
| AGGGGCCC | -0.382 |
| AGATGTTA | 0.119 |
| AAAAGCCG | -0.133 |
| ACATAGTG | -0.0763 |
| AGACAGAG | -0.0869 |
| AGGGAACT | -0.173 |

| Sequence | binding signal [E-score] |
| --- | --- |
| AGATTGGG | 0.186 |
| AGAGCACT | -0.125 |
| AGGACAAG | -0.0944 |
| AACGCTAT | -0.0192 |
| AGTAGGTG | -0.175 |
| AAATCTCG | 0.463 |
| AGTCGTCC | -0.266 |
| AGACCAAC | -0.126 |
| AGAACTCG | -0.143 |
| ACTTAAAC | 0.0645 |
| AGCCCTAC | -0.193 |
| ACCTCCGT | -0.255 |
| ACGAGAGC | -0.0209 |
| AGCGCCCC | -0.253 |
| AGTTTTAA | -0.142 |
| AGTAGCCC | -0.232 |
| ACAATCCA | 0.333 |
| AACAGATT | 0.426 |
| AACTTCCT | -0.11 |
| AATCTCTC | 0.368 |
| ATTTAAGG | -0.000788 |
| ACAGTATC | 0.304 |
